# According to PubChem BioAssay AID886 (National Center for Advancing Translational Sciences (NCATS), 2007):
# Values joined by “and” are separate entries in the source; they are usually repeats but may differ in a detail not shown here. Equal entries are not always repeated. About 2,500 (3.4%) of roughly 73,000 compounds were called active. This list was built around the results that the source calls inconclusive (neither active nor inactive); the mix of calls is not that of the screen. Calls follow the shape of the dose curve; as a rule, active = well fitted inhibition curve with a large enough effect; inconclusive = small, poorly fitted or top-dose-only effect; inactive = no such curve, though single readings can be large or run the other way. Potencies of inconclusive entries are doubtful fits and often do not repeat.
# Target: 3-hydroxyacyl-CoA dehydrogenase type-2 (Homo sapiens) (UniProt Q99714)
# Chain of UniProt Q99714 (Q99714 whole entry, looked up): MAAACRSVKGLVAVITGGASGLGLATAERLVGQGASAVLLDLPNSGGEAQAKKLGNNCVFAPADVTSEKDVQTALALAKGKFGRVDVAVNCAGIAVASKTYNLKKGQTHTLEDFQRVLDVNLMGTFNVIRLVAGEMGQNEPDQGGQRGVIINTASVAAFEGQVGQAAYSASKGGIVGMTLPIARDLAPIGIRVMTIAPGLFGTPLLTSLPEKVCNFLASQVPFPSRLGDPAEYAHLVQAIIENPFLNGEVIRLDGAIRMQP
# Chain of UniProt Q99714 (Q99714 whole entry, looked up): as above
# Assay: qHTS Assay for Inhibitors of HADH2 (Hydroxyacyl-Coenzyme A Dehydrogenase, Type II); also: nearly all actives have a fitted effect of over 60% in size
# Conditions: recombinant HADH2, NADH fluorescence, beta-hydroxybutyryl-CoA; activity change, negative = inhibition: at 57.1 µM (top of the series)
# Outline: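 His-tagged recombinant enzyme from E. coli, 20 nM, preincubated 15 min RT with compound; reaction started with 1 mM NAD+ and 90 uM beta-hydroxybutyryl-CoA in 100 mM Tris-HCl pH 9.0. NADH fluorescence (ex 360/em 450) read over 4 min; last-minus-first difference.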
# % is scaled to controls: 0 for no effect and ±100 for the full control effect; potency is read from the fitted curve at half-maximal effect; tags tell the direction and shape of the fitted curve.
SMILES,Potency,"activity change, negative = inhibition"
Oc1ccccc1C(=S)N1CCCCCC1,"inconclusive: 31.6 µM [inhibitor, single point]",
CC(C)Cn1c(N)c(C(=O)COC(=O)c2cc(-c3ccco3)nc3ccccc23)c(=O)n(C)c1=O,active: 7.94 µM,
O=C1c2ccccc2NC(c2cccc(F)c2)N1Cc1ccco1 (stereo not given),active: 12.6 µM,
COc1ccc(-c2nnc3ccc(SCC(=O)N4CCN(c5ccccc5)CC4)nn23)cc1,"inconclusive: 39.8 µM [inhibitor, single point]",
COc1cc(O)c2c(O)c3c(c4c2c1[C@@]1(C4)C(C)=CCCC1(C)C)[C@H](O)[C@@]1(O)CC(=O)C(C(N)=O)=C(O)[C@]1(O)C3=O,active: 3.16 µM,
Cc1ccc(C(=O)NCc2occc2C(=O)O)o1,"inconclusive: 0.0501 µM [inhibitor, full curve, poor fit]",
COc1ccc(OC)c2c(C)cc(NCCN3CCOCC3)nc12,"inconclusive: 39.8 µM [inhibitor, single point]",
O=C(NC1CCCCC1)N(Cc1cc2cc3c(cc2[nH]c1=O)OCCO3)CC1CCCO1 (stereo not given),"inconclusive: 39.8 µM [inhibitor, single point]",
COc1ccc(NC(=O)N2CC3(CCN(C(=O)c4cc(C(F)(F)F)cc(C(F)(F)F)c4)CC3)C2)cc1,,inactive: -3.25%
Cn1nnnc1SCc1ccc(C(=O)Nc2nccs2)cc1,"inconclusive: 3.16 µM [inhibitor, full curve]",
COc1nc(-c2ccccc2)cc(-c2ccccc2)n1,,inactive: 5.43%
S=c1[nH]nc(SCc2ccccc2Cl)c2[nH]cnc12,"inconclusive: 3.16 µM [inhibitor, single point]",
CCN(CC)CCCN1C(=O)C(=O)/C(=C(/O)c2cnn(-c3ccccc3)c2C)C1c1ccncc1 (stereo not given),,inactive: -8.9%
NC(=O)c1cc2ccc(O)cc2oc1=NCc1ccccc1,active: 3.16 µM,
Nc1c(C(O)(C(F)(F)F)C(F)(F)F)ccc2ccccc12,"inconclusive: 31.6 µM [inhibitor, single point]",
Nc1ncnc2c1ncn2CCN1CCOCC1,,inactive: 4.24%
CCS(=O)(=O)N1CCC(C(=O)NC2CCCCC2)CC1,,inactive: 6.04%
CN(N=O)C(=O)N[C@H]1[C@@H](O)[C@H](O)[C@H](CO)O[C@@H]1O,,inactive: 6.86% [at 25.6 µM]
O=C(COc1ccccc1)N(Cc1ccco1)C1CCS(=O)(=O)C1 (stereo not given),,inactive: 0.986%
CCOC(=O)c1cc2c(n(-c3ccc(C)cc3)c1=O)CCCC2=O,"inconclusive: 31.6 µM [inhibitor, single point]",
O=P(O)(O)O,,inactive: -4.18%
COC(=O)c1oc2c(c1C)C1(CCC2)SCCS1,"inconclusive: 20 µM [inhibitor, single point]",
N#Cc1nc(-c2cccs2)oc1NCc1ccc(Cl)cc1,"inconclusive: 5.01 µM [inhibitor, single point]",
Nc1ccc(-c2nc3ccccc3[nH]2)cc1,active: 31.6 µM,
CCOC(=O)c1cnn2c(C(F)(F)F)cc(-c3ccccc3)nc12,,inactive: 0.876%

SMILES,Potency,"activity change, negative = inhibition"
Cn1ncc2c(Cl)ncnc21,,inactive: 1.6% [at 11.4 µM]
C(=N\n1cnnc1)/c1cn(Cc2ccccc2)c2ccccc12,"inconclusive: 39.8 µM [inhibitor, single point]",
O=C1CCCCC1Sc1nnc(Cc2cccs2)n1CCc1ccccc1 (stereo not given),"inconclusive: 39.8 µM [inhibitor, single point]",
Cc1onc(-c2c(F)cccc2Cl)c1C(=O)Nc1nnc(C2CC2)s1,"inconclusive: 25.1 µM [inhibitor, single point]",
NCCNC(=S)S,active: 0.501 µM,
N#Cc1c(NC(NC(=O)c2ccco2)C(=O)c2ccccc2)sc2c1CCCC2 (stereo not given),"inconclusive: 31.6 µM [inhibitor, partial curve]",
COc1ccc(NC(=O)N2CC[C@@]3(CCCN(C(=O)c4cc(C(F)(F)F)cc(C(F)(F)F)c4)C3)C2)cc1,,inactive: 4.42%
CCn1c(C)c2c(C)nnc(C)c2c1C,"inconclusive: 20 µM [inhibitor, partial curve]",
COc1ccc(-c2ccc(-c3noc(-c4ccco4)n3)c(OC)n2)cc1,"inconclusive: 39.8 µM [inhibitor, single point]",
c1ccc2c(NC3CC3)nc(-c3ccoc3)nc2c1,"inconclusive: 25.1 µM [inhibitor, single point]",
COc1ccc(C(=O)Cn2nnc(-c3ccccc3NC(=O)c3ccco3)n2)cc1,"inconclusive: 39.8 µM [inhibitor, single point]",
CN(c1nc2ccccc2n2c(-c3ccco3)nnc12)S(=O)(=O)c1ccccc1,"inconclusive: 31.6 µM [inhibitor, single point]",
CCS(=O)(=O)CCSc1nc2ccccc2s1,"inconclusive: 20 µM [inhibitor, partial curve]",
Cc1nc2cc(NC(=O)N3CC4(C)CC3CC(C)(C)C4)ccc2n1C (stereo not given),,inactive: -3.23%
CCC(=O)c1ccccc1OCCSc1nc(C)cc(=O)[nH]1,"inconclusive: 0.199 µM [inhibitor, full curve, poor fit]",
CN1CCN(c2ncnc3ccc(-c4ccc5c(c4)OCO5)cc23)CC1,,inactive: 0.299%
CCOC(=O)c1c(C)oc2ccc(NS(=O)(=O)c3ccc4c5c(cccc35)C(=O)N4)cc12,"inconclusive: 39.8 µM [inhibitor, single point]",
Cc1ccc2c(N)c(C)ccc2c1,"inconclusive: 25.1 µM [inhibitor, single point]",
O=C(O)c1ccccc1C(=O)NCc1ccc(F)cc1,,inactive: -1.82%
CC(=O)c1cccc(NC(=O)Cc2cccs2)c1,"inconclusive: 3.98 µM [inhibitor, single point]",
O=C(NCc1ccco1)c1cc2c(s1)CCCCC2,"inconclusive: 39.8 µM [inhibitor, single point]",
COC(=O)C1=C(C)NC(C)=C(C(=O)OC)C1c1ccc(OC(=O)c2ccco2)cc1,"inconclusive: 39.8 µM [inhibitor, single point]",
O=C(c1csnn1)N1CCC2(CCCN(c3cccc(-c4ccccc4)c3)C2)CC1,,inactive: 17.7%
COc1ccc(N2CCN(c3cc(C)c4ccc(O)cc4n3)CC2)cc1,active: 25.1 µM,
N#Cc1cc(-c2ccccc2)nn1-c1ccccc1,active: 3.16 µM,

SMILES,Potency,"activity change, negative = inhibition"
CN1CCN(CCCN2c3ccccc3Sc3ccc(C(F)(F)F)cc32)CC1,"inconclusive: 0.199 µM [inhibitor, full curve]",
COC(=O)Nc1nc2ccc(C(=O)c3cccs3)cc2[nH]1,inactive,
COCCNC(=O)c1c(N)n(-c2cccc(C)c2)c2nc3ccccc3nc12,active: 31.6 µM,
O=C1c2ccccc2NC(c2ccccc2)N1Cc1ccco1 (stereo not given),active: 25.1 µM,
Cn1c(=O)c(-c2cc(F)cc(F)c2)nc2cnc(Oc3ccccc3)nc21,"inconclusive: 39.8 µM [inhibitor, single point]",
CNC[C@H](O)c1ccc(O)c(O)c1,active: 794 nM and active: 1.26 µM,
CC(C)C[C@@H](CC(=O)N[C@@H](CCC(=O)O)CC(=O)O)NC(=O)[C@@H]1CCCC[C@H]1NC(=O)C[C@H](CCCN)NC(=O)C[C@H](Cc1ccccc1)NC(=O)[C@@H]1CCCC[C@H]1N,,inactive: 12.6%
Cc1cc(C)c2c(n1)nn1c(N3CCOCC3)cc(C)nc21,active: 25.1 µM,
O=C(CCC1CCCCC1)Nc1ccccc1O,"inconclusive: 1.58 µM [inhibitor, partial curve, poor fit]",
O=C1c2oc3ccc(Cl)cc3c(=O)c2C(c2cccnc2)N1Cc1ccco1 (stereo not given),"inconclusive: 25.1 µM [inhibitor, partial curve]",
COCc1nnc(NC(=O)CCC2CCCCC2)s1,"inconclusive: 31.6 µM [inhibitor, single point]",
Cc1ccc(C(C)C)c(OCc2nnc(SCC(=O)Nc3ncc(C)s3)n2C)c1,"inconclusive: 39.8 µM [inhibitor, single point]",
Cc1csc(SCC(=O)Nc2cc(C(C)(C)C)nn2-c2ccccc2)n1,,inactive: 4.83%
CO[C@@H]1COC(=O)[C@H]2CCCN2C(=O)C/C=C\[C@@H](C)[C@H](OC)COC(=O)[C@H]2CCCN2C(=O)C/C=C\[C@H]1C,,inactive: -11% [at 11.4 µM]
CN(Cc1ccco1)c1nc(-c2ccoc2)nc2ccccc12,"inconclusive: 31.6 µM [inhibitor, single point]",
Cc1csc(-c2coc3cc(O)cc(C)c3c2=O)n1,"inconclusive: 15.8 µM [inhibitor, partial curve, poor fit]",
C#CC(C)OC(=O)c1nnc2c3ccccc3n(COC)c2n1 (stereo not given),,inactive: 10.5% [at 11.4 µM]
CC1CCCCN1CCCNC(=O)c1ccc(-n2c(=O)c(=O)[nH]c3ccccc32)cc1 (stereo not given),,inactive: -2.23%
COc1ccc(C(=O)CCN(C)C)c2ccccc12,"inconclusive: 1.58 µM [inhibitor, partial curve]",
CCOC(=O)Cc1csc(-n2sc3ccccc3c2=O)n1,active: 0.251 µM,
CCCc1nc2oc3c(NCCOCCO)ncnc3c2c2c1COC(C)(C)C2,"inconclusive: 39.8 µM [inhibitor, single point]",
O=c1[nH]c(SCc2ccc(F)cc2)nc2c1cnn2-c1ccc(F)cc1,,inactive: 4.43%
COc1ccc2nc(C)c(C(=O)OCCN(C)C)cc2c1,"inconclusive: 39.8 µM [inhibitor, single point]",
O=C(CCc1ccc(O)cc1)c1c(O)cc(O)cc1O,"inconclusive: 12.6 µM [inhibitor, partial curve]",
COc1ccccc1-c1cncnc1NCc1cnc(C)cn1,"inconclusive: 12.6 µM [inhibitor, partial curve]",
